{"source": "PubChem BioAssay AID488969", "about": "(Vanderbilt High Throughput Screening Facility, 2010)", "note": "Over roughly 110,000 compounds, “z-score” has its median near -0.1; the highest 2% begin near 2. The list shows a part of the results.", "data": [{"target": "Metabotropic glutamate receptor 8 (Rattus norvegicus) (UniProt P70579)", "sequence (P70579 whole entry, looked up)": "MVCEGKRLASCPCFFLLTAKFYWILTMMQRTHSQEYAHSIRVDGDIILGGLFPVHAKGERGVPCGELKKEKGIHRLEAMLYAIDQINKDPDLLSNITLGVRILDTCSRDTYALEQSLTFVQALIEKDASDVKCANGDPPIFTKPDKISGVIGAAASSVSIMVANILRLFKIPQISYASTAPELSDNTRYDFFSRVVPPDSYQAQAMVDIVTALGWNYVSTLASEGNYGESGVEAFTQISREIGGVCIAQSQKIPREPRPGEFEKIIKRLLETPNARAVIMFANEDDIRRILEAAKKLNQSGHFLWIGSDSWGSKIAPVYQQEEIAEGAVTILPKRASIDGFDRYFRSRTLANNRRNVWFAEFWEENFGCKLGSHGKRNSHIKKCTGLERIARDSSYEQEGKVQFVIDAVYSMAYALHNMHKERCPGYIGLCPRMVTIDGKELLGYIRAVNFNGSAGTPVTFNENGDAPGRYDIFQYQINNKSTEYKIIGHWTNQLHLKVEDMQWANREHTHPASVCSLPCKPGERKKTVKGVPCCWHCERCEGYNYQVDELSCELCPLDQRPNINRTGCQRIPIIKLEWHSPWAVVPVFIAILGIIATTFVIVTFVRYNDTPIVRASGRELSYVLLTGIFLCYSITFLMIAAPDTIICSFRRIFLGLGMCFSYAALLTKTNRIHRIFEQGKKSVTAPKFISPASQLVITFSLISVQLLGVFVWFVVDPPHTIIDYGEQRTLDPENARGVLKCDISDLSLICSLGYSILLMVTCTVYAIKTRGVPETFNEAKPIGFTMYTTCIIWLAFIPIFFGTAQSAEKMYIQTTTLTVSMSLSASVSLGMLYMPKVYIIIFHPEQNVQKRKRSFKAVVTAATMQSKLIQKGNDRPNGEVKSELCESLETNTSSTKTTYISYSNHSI", "assay": "mGluR8 Gi/Go-coupled signaling modulation – cell-based, rat, thallium flux, HTS, primary screen (AID 488969)", "conditions": "HEK293 rat mGluR8, GIRK (G protein-gated inwardly rectifying potassium channel) thallium flux, FluoZin2; at 10 µM; stronger effect = higher value; submaximal glutamate (EC20) added with thallium", "values": [{"smiles": "Cc1noc(NS(=O)(=O)c2ccc(NC(=O)CSc3ncccn3)cc2)c1C", "z-score": 0.774}, {"smiles": "COc1ccc(/C(O)=C2/C(=O)C(=O)N(CCN3CCOCC3)C2c2ccccn2)cc1OC", "note": "(stereo not given)", "z-score": 0.0595}, {"smiles": "O=C(/C=C/c1ccccc1Cl)NCc1ccco1", "z-score": -0.133}, {"smiles": "C=CCn1c(C)cc(C(=O)COc2ccc(C)nc2[N+](=O)[O-])c1C", "z-score": -0.251}, {"smiles": "COc1cc(C(=S)N2CCOCC2)cc(OC)c1OC(=O)c1cc([N+](=O)[O-])cc([N+](=O)[O-])c1", "z-score": 0.243}, {"smiles": "CCOC(=O)CCCNC(=O)COC(=O)[C@@H]1CCCN1S(=O)(=O)c1ccc(Cl)cc1", "z-score": -0.353}, {"smiles": "Cc1nc(N)sc1N=Nc1ccc(F)cc1", "z-score": -0.0101}, {"smiles": "COC(=O)c1sc(NC(=O)COc2ccc(OC)cc2)nc1C", "z-score": 0.335}, {"smiles": "COC(=O)c1ccc(NC(=O)CSCc2ccccc2C)cc1", "z-score": 0.192}, {"smiles": "CCn1c(SCC(=O)NCCc2ccc(OC)c(OC)c2)nc2c1c(=O)n(C)c(=O)n2C", "z-score": 0.665}, {"smiles": "CCOc1ccccc1NC(=O)/C=C/c1ccccc1[N+](=O)[O-]", "z-score": 1.17}, {"smiles": "O=C(NCc1ccco1)C1CCN(S(=O)(=O)Cc2ccccc2)CC1", "z-score": -0.283}, {"smiles": "CCOC(=O)C1CCN(Cc2oc(CO)cc(=O)c2O)CC1", "z-score": -0.277}, {"smiles": "COc1ccc(C2(CNC(C)=O)CCOCC2)cc1OC", "z-score": 0.1}, {"smiles": "COc1ccc(OCC(=O)N2CCN(C(=O)c3cccs3)CC2)cc1", "z-score": -2.73}, {"smiles": "COCCCNC(=O)c1cc2c(-c3ccc(Cl)cc3)nn(C)c2s1", "z-score": -0.424}, {"smiles": "CCOC(=O)NCc1ccc2c(c1)OCO2", "z-score": 0.481}, {"smiles": "CCCc1ccc(S(=O)(=O)NCCc2ccncc2)cc1", "z-score": 0.535}, {"smiles": "Nc1nc(CN2CCN(Cc3ccccc3)CC2)nc(Nc2ccccc2)n1", "z-score": 0.26}, {"smiles": "Cc1nc(SCC(=O)NC(=O)NCCC(C)C)c2c(-c3cccs3)csc2n1", "z-score": -0.109}, {"smiles": "Cc1nn(-c2ccccc2Cl)c(Cl)c1/C=N/Nc1cccc(C(=O)O)c1", "z-score": -0.807}, {"smiles": "CCC(=O)Nc1cccc(C(=O)/C=C/c2ccccc2)c1", "z-score": 0.248}, {"smiles": "CCOP(=O)(c1ccccc1)C(O)c1ccc(F)cc1", "note": "(stereo not given)", "z-score": -0.11}, {"smiles": "CCn1c(SCC(=O)Nc2cc(C)on2)nc2sc3c(c2c1=O)CCCC3", "z-score": -0.225}, {"smiles": "O=C(NN1C(=O)/C(=C\\c2cccnc2)SC1=S)C(c1ccccc1)c1ccccc1", "z-score": -0.22}, {"smiles": "CSc1nc(-c2ccccc2)c(-c2ccccc2)[nH]1", "z-score": -0.111}, {"smiles": "CCCNc1cc(C)c(C#N)c2nc3ccccc3n12", "z-score": -1.34}, {"smiles": "COc1ccc(/C=C2/C(=O)N=C(N)N2C)cc1OC", "z-score": -0.0391}, {"smiles": "O=C(NCCCn1ccnc1)NC(C(F)(F)F)C(F)(F)F", "z-score": 0.00784}, {"smiles": "O=C(Nc1ccc(C(F)(F)F)cc1Cl)c1ccc(Cn2cc(Br)cn2)o1", "z-score": -0.45}, {"smiles": "CN(CC(=O)N1CCCCCC1)S(=O)(=O)c1cccc2cccnc12", "z-score": -0.119}, {"smiles": "CCOc1ccc(-c2nnc3sc(-c4c(OC)cccc4OC)nn23)cc1", "z-score": 0.036}, {"smiles": "COc1ccc(NC(=O)CSc2nc(N3CCCCC3)nc(N3CCCCC3)n2)cc1", "z-score": 0.216}, {"smiles": "COc1ccc(-c2ncccc2OC(=O)C23CC4CC(CC(C4)C2)C3)cc1", "z-score": 1.48}, {"smiles": "O=C(CC1S/C(=N\\S(=O)(=O)c2ccc(F)cc2)N(c2ccccc2)C1=O)Nc1ccccc1", "note": "(stereo not given)", "z-score": 1.02}, {"smiles": "CCn1c(SCC(=O)N/N=C/C=C/c2ccco2)nc2ccccc21", "z-score": -0.136}, {"smiles": "Cc1cc(C)n(-c2ccc(C(=O)O)cc2)n1", "z-score": -0.00992}, {"smiles": "COc1ccc(C2NC(C(=O)O)Cc3c2[nH]c2ccccc32)cc1OC", "note": "(stereo not given)", "z-score": -0.175}, {"smiles": "COc1cc(-c2nc(-c3ccccc3)c(-c3cccs3)[nH]2)cc(OC)c1OC", "z-score": -0.628}, {"smiles": "CN(C)CCCN1C(=O)CSC1c1ccccc1", "note": "(stereo not given)", "z-score": -0.244}, {"smiles": "COC(=O)C1CCN(C(=O)c2sc3nc(-c4ccccc4)cn3c2C)CC1", "z-score": -0.507}, {"smiles": "CCOC(=O)CCCSc1nc(-c2ccc3c(c2)OCO3)cc(C(F)(F)F)c1C#N", "z-score": -0.116}, {"smiles": "COc1ccc(CC(=O)NNC(=S)Nc2ccc(Br)cc2)cc1", "z-score": 0.363}, {"smiles": "O=C(CN1CCCN(S(=O)(=O)c2ccc(Br)cc2)CC1)Nc1ccc2cn[nH]c2c1", "z-score": -0.0293}, {"smiles": "CN(C)/C=N/c1c(C#N)cnn1-c1ncnc2sc(-c3ccccc3)cc12", "z-score": 0.831}, {"smiles": "COc1ccc(NC(=O)CCC2CCCC2)cc1OC", "z-score": 0.0836}, {"smiles": "Cc1ccc(NC(=O)/C(C#N)=C/c2ccsc2)c(C)c1", "z-score": -0.374}, {"smiles": "COC(=O)C1=C(C)N(c2cccc3ccccc23)C(=O)C1", "z-score": -1.36}, {"smiles": "CCCCCCCC(=O)OC(CN1CCCCC1)CN1CCCC1=O", "note": "(stereo not given)", "z-score": 0.00336}, {"smiles": "COc1ccc(C(=O)Oc2cccc(Nc3ncnc4ccccc34)c2)cc1OC", "z-score": -0.641}, {"smiles": "Cc1sc(NC(=O)C2C3CCC(O3)C2C(=O)O)nc1-c1ccc(CC(C)C)cc1", "note": "(stereo not given)", "z-score": -0.216}, {"smiles": "Cc1nn(C(C)(C)C)c(N)c1-c1ccccc1", "z-score": 0.195}, {"smiles": "COc1cc(/C=N/NC(=S)Nc2cccc(S(=O)(=O)N(C)C)c2)cc(OC)c1O", "z-score": -0.472}, {"smiles": "CCC(CC)C(=O)c1c[nH]c(C(=O)NCC2CCCO2)c1", "note": "(stereo not given)", "z-score": 0.307}, {"smiles": "COc1ccc(CCN2C(=O)CC(N3CCOCC3)C2=O)cc1", "note": "(stereo not given)", "z-score": 0.443}, {"smiles": "COc1ccc(OCc2nnc(SCC(=O)N3CCCc4ccccc43)n2-c2ccc(C)cc2)cc1", "z-score": 0.689}, {"smiles": "CCn1cc(/C=N/NS(=O)(=O)c2ccc(OC)cc2)c(C)n1", "z-score": -0.0801}, {"smiles": "CCOc1ccc(C(O)C(CN2CCOCC2)c2ccccc2)cc1", "note": "(stereo not given)", "z-score": 0.0283}, {"smiles": "NC(N)=NS(=O)(=O)c1ccc(NC(=S)NC(=O)/C=C/c2ccco2)cc1", "z-score": 0.302}, {"smiles": "CCOC(=O)Cn1c(=O)oc2cc(S(=O)(=O)NCc3cccs3)ccc21", "z-score": 0.18}, {"smiles": "Cc1ccc2nc(SCC(=O)NNC(=O)c3ccccc3)[nH]c2c1", "z-score": -0.0561}, {"smiles": "Cc1ccccc1N1C(=O)C2C3C=CC(C2C1=O)N(C)C3=O", "note": "(stereo not given)", "z-score": -0.12}, {"smiles": "CCCOc1ccc(C2C(C(=O)c3ccco3)=C(O)C(=O)N2CCN2CCOCC2)cc1OC", "note": "(stereo not given)", "z-score": 0.22}, {"smiles": "Cc1ccccc1/C(N)=N/OC(=O)c1cccs1", "z-score": 0.0732}, {"smiles": "O=C1C2CC=CCC2C(=O)N1c1ccc(NCCc2ccccc2F)c([N+](=O)[O-])c1", "note": "(stereo not given)", "z-score": 0.212}, {"smiles": "O=C(O)C1C2C=CC3(CN(CC(O)COc4ccccc4)C(=O)C13)O2", "note": "(stereo not given)", "z-score": 0.811}, {"smiles": "CCOc1ccccc1C(=O)NC(C)c1ccc2c(c1)OCO2", "note": "(stereo not given)", "z-score": -1.66}, {"smiles": "Cc1nc(=O)c(-c2ccccc2)c(C)n1-c1ccc(S(N)(=O)=O)cc1", "z-score": -0.192}, {"smiles": "O=C(CN1C(=O)C2CC=CCC2C1=O)NCC1COc2ccccc2O1", "note": "(stereo not given)", "z-score": 0.147}, {"smiles": "CN(C)S(=O)(=O)c1ccc2c(c1)nc(CCC(=O)Nc1ccc3c(c1)OCO3)n2C", "z-score": -0.278}]}]}
